Results taken from US12729231B2, “Fusion protein having triple activity and use thereof” (SHANGHAI MINWEI BIOTECHNOLOGY CO., LTD, priority 2023, dated 2026).

Tested on: DIO mice
Experiment: body weight reduction by multiple subcutaneous injections in DIO mice
Type: in vivo
Conditions: 30 nmol/kg subcutaneous twice a week for 5 weeks, mean of 6 mice
Experimental: 7-week-old C57BL/6Nju mice were fed with a high-fat diet (of about 20% protein and about 60% fat) for 12 weeks for modeling. Feeding conditions: 12 hours of light and 12 hours of darkness cycle every day, ad libitum feeding, temperature 20-25° C., relative humidity 40-70%, ventilation frequency of 10-15 times/hour. According to body weight, water consumption, and food intake, the mice were randomly divided into groups the day before administration. […] Subcutaneous injection treatment was administered twice a week for 5 consecutive weeks, for a total of 10 administrations. After the administration, the body weight, OGTT, body fat ratio, blood lipids and liver function of the mice were measured. The data are shown as mean±standard deviation, and statistically analyzed by One-Way ANOVA.

B1: Fc-FGF21: Fc-FGF21 mutant, SEQ ID NO 3; FGF21 single activity comparator (protein)
chain: [human IgG4 Fc with S228P F234A L235A (EU numbers) not listed]GGGGSGGGGSGGGGSHPIPDSSPLLQFGGQVRQVYLYTDDAQQTEAHLEIREDGTVGGAADQSPESLLQLKALKPGVIQILGVKTSRFLCQRPDGALYGSLHFDPEACSFRERLLEDGYNVYQSEAHGLPLHLPGNKSPHRDPAPRGPARFLPLPGLPPALPEPPGILAPQPPDVGSSDPLSMVGNSTGRSPSYAS
modifications: Fc-FGF21 mutant fusion protein
DIO mice
  ALT: 88.365 U/L
  AST: 77.658 U/L
  Blood glucose (fasting): 9.12 mmol/L
  LDL-C (plasma low-density lipoprotein cholesterol): 0.656 mmol/L
  TC (plasma total cholesterol): 5.364 mmol/L
DIO obese mice
  % Change in weight since inception: −6.65%
  Body fat ratio: 42.88%
